“And” between values parts separate entries of the source, which are not always exact repeats. Identical values can stand only once. The whole screen tested about 420,000 compounds, of which about 50,000 (12%) were called active. The shares of active, inactive and inconclusive entries below differ from those in the screen. Calls come from the whole dose curve; as a rule, active = well fitted inhibition curve with a large enough effect; inconclusive = small, poorly fitted or top-dose-only effect; inactive = flat fitted curve, though single readings scatter. Potencies beside an inconclusive call are fits to weak or partial responses and may not hold up.
assay: qHTS for Inhibitors of human tyrosyl-DNA phosphodiesterase 1 (TDP1): qHTS in cells in presence of CPT; details: chicken DT40 Tdp1-/-;hTDP1 cells + 20 nM CPT, ATP luminescence, 48 h; activity change, negative = growth inhibition: at 46.2 µM (top of the series) unless noted; note: nearly all actives have a fitted effect of over 55% in size
In short: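 Cell growth measured by CellTiter-Glo luminescence after a minimum 48 h, 37 C compound exposure with 20 nM CPT in Tdp1-knockout DT40 cells stably expressing hTDP1, seeded 400/well; qHTS titration format.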
% is set by controls: 0 for no effect and ±100 for the full control effect; potency is the fitted concentration of half-maximal effect; tags give direction and shape of the fitted curve.

| Structure (SMILES) | Potency | activity change, negative = growth inhibition |
| --- | --- | --- |
| CCOC(=O)C1CCC(CN(Cc2ccc(Cl)cc2)S(=O)(=O)c2cccc(Cl)c2C)CC1 (stereo not drawn) | active: 23.1 µM | – |
| CN(Cc1nc2ccccc2[nH]1)Cc1nc(CC2CC2)no1 | inconclusive: 18.4 µM [inhibitor, single point] | – |
| CCSc1nnc(CNc2ccc(C)cc2)n1C | inconclusive: 23.1 µM [inhibitor, single point] | – |
| COc1ccc(C(=O)c2c(-c3ccc(OC)cc3)oc3ccccc23)cc1 | inconclusive: 23.1 µM [inhibitor, single point] | – |
| CC(C)(C)c1ccc(C(=O)CCCSC2=C(C#N)C(c3ccco3)C3=C(CCCC3=O)N2)cc1 (stereo not drawn) | active: 16.4 µM | – |
| CCOC(=O)C1CCN(C(=O)c2ccccc2NC(=O)c2nsc3ccccc23)CC1 | inconclusive: 20.6 µM [inhibitor, partial curve] | – |
| CCOc1ccc(NS(=O)(=O)c2c(C)nc3sc(C)c(C)n3c2=O)cc1 | active: 18.4 µM | – |
| COc1ccc(-c2cc(C(F)F)n3ncc(C(=O)n4ccnc4C)c3n2)cc1 | active: 14.6 µM | – |
| O=C(NCCC1=CCCCC1)C1CCCN(S(=O)(=O)c2cccnc2)C1 (stereo not drawn) | inconclusive: 13 µM [inhibitor, partial curve] | – |
| COc1cc(C=CC(=O)c2ccccc2)cc(OC)c1OC | active: 5.8 µM | – |
| CN(C)S(=O)(=O)NCC1CCCN(Cc2cc3ccccc3s2)C1 (stereo not drawn) | inconclusive: 25.9 µM [inhibitor, single point] | – |
| O=C(CSc1ncc(-c2ccccc2)[nH]1)Nc1ccccc1 | inconclusive: 18.4 µM [inhibitor, single point] | – |
| COc1ccc(S(=O)(=O)Nc2cc3[nH]c(=O)oc3cc2C)cc1 | inconclusive: 29.1 µM [inhibitor, single point] | – |
| O=C(Nc1ccc2c(c1)OCO2)c1csc([C@H]2C[C@H](O)[C@@H](CO)O2)n1 | – | inactive: -6.27% |
| O=c1c(-c2ccccc2)c(-c2ccccc2)oc2cc(O)cc(O)c12 | – | inactive: -19.3% |
| CNCc1c(OCc2ccccc2)ccc2ccccc12 | inconclusive: 29.1 µM [inhibitor, single point] | – |
| Cc1nc2c3ccccc3[nH]c(=O)n2n1 | – | inactive: -21% |
| COc1cccc(C(O)c2ncc(-c3cccc(F)c3)[nH]2)c1 (stereo not drawn) | inconclusive: 18.4 µM [inhibitor, single point] | – |
| COc1ccc(NC(=O)NC2(C(=O)N3CCCCC3)CCCCC2)cc1 | inconclusive: 29.1 µM [inhibitor, single point] | – |
| Oc1ccc(N=Nc2nccs2)c(O)c1 | active: 10.3 µM | – |
| CCc1ccc(Nc2nnc(SCc3cc(=O)n4ccsc4n3)s2)cc1 | inconclusive: 23.1 µM [inhibitor, single point] | – |
| N#Cc1cccc(-c2csc(C(O)(c3ccccc3)C(F)(F)F)n2)c1 (stereo not drawn) | inconclusive: 25.9 µM [inhibitor, single point] | – |
| Cc1ccnc(NC(=O)c2ccccc2NC(=O)C(C)(C)C)c1 | active: 18.4 µM | – |

| Structure (SMILES) | Potency | activity change, negative = growth inhibition |
| --- | --- | --- |
| O=C(c1ccco1)N1CCCN(Cc2nc(-c3cccs3)no2)CC1 | – | inactive: -5.12% |
| CCOc1ccc2c(c1)C(=NNC(=O)c1ccncc1)c1cc(OCC)ccc1-2 | active: 3.66 µM | – |
| O=C(CCC1N=C2c3ccccc3N=C(SCC(=O)Nc3cccc(Cl)c3)N2C1=O)NCc1ccco1 (stereo not drawn) | inconclusive: 23.1 µM [inhibitor, single point] | – |
| N#Cc1cccc(NC(=O)c2cc(C3CCCCN3C(=O)c3ccc4c(c3)CCO4)on2)c1 (stereo not drawn) | inconclusive: 29.1 µM [inhibitor, single point] | – |
| CN1CCN(CCC(=O)N2c3ccccc3Sc3ccc(C(F)(F)F)cc32)CC1 | inconclusive: 29.9 µM [inhibitor, single point] and inconclusive: 29.1 µM [inhibitor, single point] | – |
| CCc1ccccc1N1C(=O)c2cccc3c(N4CCOCC4)c([N+](=O)[O-])cc(c23)C1=O | inconclusive: 29.1 µM [inhibitor, partial curve, poor fit] | – |
| CC1CCc2c(nc3ncnn3c2NCCc2ccccc2F)C1 (stereo not drawn) | inconclusive: 23.1 µM [inhibitor, single point] | – |
| CC1(C)S[C@@H]2[C@H](NC(=O)C(c3ccccc3)S(=O)(=O)O)C(=O)N2[C@H]1C(=O)O (stereo partly drawn) | – | inactive: -5% |
| CCC(=O)NC(=S)Nc1ccc(NC(=O)c2ccco2)c(OC)c1 | inconclusive: 25.9 µM [inhibitor, partial curve, poor fit] | – |
| CCOc1ccc(-n2c(C)cc(/C=C3/C(=N)N4C(=NC3=O)SN=C4S(C)(=O)=O)c2C)cc1 | inconclusive: 23.1 µM [inhibitor, single point] | – |
| O=C(Nc1cccc2ccccc12)/C(=C\c1cccc([N+](=O)[O-])c1)NC(=O)c1cccs1 | inconclusive: 13 µM [inhibitor, partial curve] | – |
| O=C(Cc1c[nH]c2ccccc12)N1CCC(n2c(C3CCCO3)nc3cc(C(F)(F)F)ccc32)CC1 (stereo not drawn) | inconclusive: 6.51 µM [inhibitor, single point] | – |
| CCCOc1cccc(C(=O)Nc2cccc3ncccc23)c1 | – | inactive: 1.37% |
| CCOC(=O)C[C@H]1c2cc(C(F)(F)F)ccc2S(=O)(=O)N1Cc1ccccc1 | inactive and inconclusive: 25.1 µM [inhibitor, single point] | – |
| COc1ccc(CCNC(=O)CSc2nc(-c3ccc(OC)c(OC)c3)ccc2C#N)cc1 | inconclusive: 20.6 µM [inhibitor, single point] | – |
| CN(Cc1ccccc1)C(=O)c1oc(=O)c2ccccc2c1-c1ccccc1 | inconclusive: 11.6 µM [inhibitor, partial curve] | – |
| Cc1ccccc1NC(=S)NNC(=O)c1cccnc1 | inconclusive: 29.1 µM [inhibitor, single point] | – |
| CN1CC[C@@H]2C(=O)N3CCc4ccc(-c5ccc6c(c5)OCO6)cc4[C@@H]3C[C@@H]21 | active: 18.4 µM | – |
| COc1ccc(N(Cc2cc3cccc(C)c3[nH]c2=O)S(=O)(=O)c2ccc(Cl)cc2)cc1 | inconclusive: 20.6 µM [inhibitor, single point] | – |
| COc1cccc(NC(=O)C2(C)CCN2CCc2ccccc2)c1 (stereo not drawn) | active: 23.1 µM | – |
| CCCCNc1c(-c2ccc(SC3CCCCC3)cc2)nc2cnccn12 | active: 14.6 µM | – |
| CN(C)S(=O)(=O)c1ccc2nnn(O)c2c1 | inconclusive: 29.1 µM [inhibitor, single point] | – |
| CC(C)(C)c1ccccc1NC(=S)NCc1ccccc1 | inconclusive: 20.6 µM [inhibitor, single point] | – |

| Structure (SMILES) | Potency | activity change, negative = growth inhibition |
| --- | --- | --- |
| CC(C)c1ccc(N(CC(=O)NC2CCCC2)C(=O)CCC(=O)Nc2nccs2)cc1 | – | inactive: -29.5% |
| O=C(Cc1ccccc1)CC(CC(=O)c1ccccc1)c1ccccc1 (stereo not drawn) | active: 16.4 µM | – |
| CC1c2cc3c(cc2CCN1CC(=O)Nc1ccc(S(=O)(=O)N2CCCC2)cc1)OCCCO3 (stereo not drawn) | inconclusive: 29.1 µM [inhibitor, single point] | – |
| CCOP(=O)(OCC)C(NC(=O)c1cccs1)c1ccccc1 (stereo not drawn) | – | inactive: 5.05% |
| C[C@H]1CCC[C@@]2(O[C@H](CCO)C[C@@H](O)[C@@H]2O)O1 | – | inactive: -4.72% |
| CSc1nc2nccc(-c3ccc(-c4ccccc4)cc3)n2n1 | inconclusive: 29.1 µM [inhibitor, single point] | – |
| COc1cc(N=Nc2c(O)c3ccccc3[nH]c2=O)c(OC)cc1N=Nc1ccccc1 | inconclusive: 16.4 µM [inhibitor, single point] | – |
| Cc1ccc(S(=O)(=O)NCCCCCCNS(=O)(=O)c2ccc(C)cc2)cc1 | inconclusive: 20.6 µM [inhibitor, single point] | – |
| Cc1ccc[n+](CC(=O)Nc2cc(C(F)(F)F)ccc2Cl)c1 | – | inactive: -5.25% |
| O=C(COc1cc(Cl)c(Cl)cc1Cl)NC(=O)Nc1ccc2c(c1)OCCO2 | inconclusive: 18.4 µM [inhibitor, single point] | – |
| O=C(c1ccc(Cn2c(=O)[nH]c3ccccc3c2=O)cc1)N1CCN(c2ccccn2)CC1 | inconclusive: 29.1 µM [inhibitor, single point] | – |
| Cc1cc(=O)oc2cc(OCC(=O)N3CC[C@@]4(O)CCCC[C@H]4C3)c(Cl)cc12 | – | inactive: -17.9% |
| C[C@H](NC(=O)C1CCN(S(=O)(=O)c2ccccc2)CC1)C(=O)NC1CC1 | – | inactive: -10.4% |
| CC1(C)CC(NC(=O)COc2ccc3c4c(c(=O)oc3c2)CCCC4)CC(C)(C)N1 | – | inactive: 2.55% |
| COc1ccc(/C=C/C(=O)Nc2nc(N)n(-c3ccccc3)n2)cc1 | inconclusive: 16.4 µM [inhibitor, partial curve, poor fit] | – |
| O=C(Cn1ccc2cc(S(=O)(=O)N3CCCCCC3)ccc21)NCc1ccccc1Cl | inconclusive: 16.4 µM [inhibitor, single point] | – |
| CCCCCCCCC(=O)NNC(=O)c1c(O)c2ccccc2n(CC)c1=O | inconclusive: 29.1 µM [inhibitor, single point] | – |
| CN(C)c1ccc(/C=C2\NC(=O)NC2=O)cc1 | – | inactive: -10.6% |
| COc1cccc(CN2C(=O)CN(C3CCCCC3)C(=O)C2c2ccc(OC(C)C)c(OC)c2)c1 (stereo not drawn) | inconclusive: 29.1 µM [inhibitor, partial curve, poor fit] | – |
| O=C(Nc1ccc(OCC(=O)N2CCOCC2)cc1)Nc1cccc2ccccc12 | – | inactive: 8.06% |
| COc1ccc(CCNC(=O)C(=O)NCc2cccs2)cc1OC | inconclusive: 23.1 µM [inhibitor, single point] | – |
| COc1cccc(NC(=O)c2c(C)nn(-c3cccc(C)c3)c2-n2cccc2)c1 | inconclusive: 25.9 µM [inhibitor, single point] | – |

From PubChem BioAssay AID686979 (National Center for Advancing Translational Sciences (NCATS), 2013)
